# Hit rate of the full screen: of about 310,000 compounds, about 14,000 (4.5%) showed an effect of 50% or more. Effects have a minus sign here. Some of the results follow.
# Target: human ether-à-go-go-related gene (hERG) potassium channel (human, UniProt Q12809)
# Experiment: primary screen, population patch clamp on CHO cells stably expressing hERG
# 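Also: peak tail current of the secondary pulse compared with the same well before compound.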
# Sequence of human ether-à-go-go-related gene (hERG) potassium channel (Q12809 whole entry, looked up): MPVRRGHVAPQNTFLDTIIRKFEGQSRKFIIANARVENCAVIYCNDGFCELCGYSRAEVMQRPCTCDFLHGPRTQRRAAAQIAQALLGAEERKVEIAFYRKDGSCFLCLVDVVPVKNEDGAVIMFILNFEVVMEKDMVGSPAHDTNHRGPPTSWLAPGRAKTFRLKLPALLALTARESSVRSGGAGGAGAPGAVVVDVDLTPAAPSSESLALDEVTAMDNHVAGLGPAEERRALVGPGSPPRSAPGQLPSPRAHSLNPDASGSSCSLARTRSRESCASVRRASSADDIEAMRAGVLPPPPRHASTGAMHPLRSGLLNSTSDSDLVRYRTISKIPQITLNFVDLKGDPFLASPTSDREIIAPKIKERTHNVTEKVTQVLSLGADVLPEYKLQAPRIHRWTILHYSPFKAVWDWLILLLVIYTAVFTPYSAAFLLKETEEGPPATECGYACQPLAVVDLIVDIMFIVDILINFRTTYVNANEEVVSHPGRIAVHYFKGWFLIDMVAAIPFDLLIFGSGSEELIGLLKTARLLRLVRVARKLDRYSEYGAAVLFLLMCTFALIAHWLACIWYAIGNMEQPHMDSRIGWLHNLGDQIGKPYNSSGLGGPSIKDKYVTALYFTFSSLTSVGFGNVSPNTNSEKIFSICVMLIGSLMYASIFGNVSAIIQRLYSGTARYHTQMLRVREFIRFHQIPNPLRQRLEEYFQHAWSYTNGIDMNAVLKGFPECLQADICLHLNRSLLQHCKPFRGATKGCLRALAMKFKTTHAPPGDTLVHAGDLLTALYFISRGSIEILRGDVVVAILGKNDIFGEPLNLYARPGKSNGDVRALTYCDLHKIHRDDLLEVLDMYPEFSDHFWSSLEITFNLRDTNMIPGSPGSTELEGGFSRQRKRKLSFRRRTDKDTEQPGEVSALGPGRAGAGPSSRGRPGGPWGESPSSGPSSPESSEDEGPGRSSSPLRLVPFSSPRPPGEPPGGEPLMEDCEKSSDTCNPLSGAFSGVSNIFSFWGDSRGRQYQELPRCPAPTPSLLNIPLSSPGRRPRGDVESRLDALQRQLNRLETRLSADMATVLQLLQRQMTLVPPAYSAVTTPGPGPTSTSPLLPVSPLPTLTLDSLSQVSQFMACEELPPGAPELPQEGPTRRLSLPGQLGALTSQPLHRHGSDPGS
row,SMILES,"hERG current change (%, negative = inhibition) at 10uM"
1,CCCOc1ccc(-c2nc(C#N)c(NCC3CCCO3)o2)cc1 (stereo not shown),-14.7%
2,O=C(COC(=O)Cc1ccc(Br)cc1)NC1CC1,-18.8%
3,O=C(O)Cc1ccc(Oc2ncc(C(F)(F)F)cc2Cl)cc1,12.2%
4,CCOC(=O)c1c(NC(=O)CNC2CCCc3ccccc32)sc(C(N)=O)c1C (stereo not shown),25.5%
5,O=C(COC(=O)c1nc(Cl)c(Cl)c(Cl)c1Cl)c1ccc[nH]1,-4.18%
6,Cc1c(C(=O)Nc2ccc(S(=O)(=O)Nc3ncccn3)cc2)oc2ccc(F)cc12,23.5%
7,CCc1nnc(NC(=O)CC23CC4CC(CC(C4)C2)C3)s1,15.7%
8,CC(C)CC[n+]1ccn(C2=C([O-])c3ccccc3C(=O)/C2=N\S(=O)(=O)c2ccccc2)c1,-3.71%
9,O=[N+]([O-])c1ccc(Cl)c(S(=O)(=O)Nc2cccc(-c3ccc(N4CCOCC4)nn3)c2)c1,-30%
10,CC(=O)Nc1ccc(NC2=CC(=O)CC(C)(C)C2)cc1,8.98%
11,Cc1nc2nc(COc3ccccc3)[nH]n2c(=O)c1Cl,16.2%
12,O=C(Nc1ccc(N2CCOCC2)cc1)c1cccnc1,16.7%
13,Cc1ccc(S(=O)(=O)N2CCN(C(=O)COC(=O)CCOc3ccc(C(C)(C)C)cc3)CC2)cc1,-15.7%
14,O=C(/C=C/c1ccc(Cl)cc1)N1CCN(c2ccc(Cl)cc2[N+](=O)[O-])CC1,-92.9%
15,CC(C)(Oc1ccc(Cl)cc1)C(=O)Nc1cccnc1,-5.92%
16,CC(C)Nc1nc(-c2cccnc2)nc(-c2ccc(Cl)cc2)c1C#N,8.35%
17,Cc1cccc(N2CCN(C(=O)CCn3c(=S)[nH]c4cc5c(cc4c3=O)OCO5)CC2C)c1 (stereo not shown),2.44%
18,CCOc1ccc(NC(=O)C2CCC(CNc3c(N4CCCCC4)c(=O)c3=O)CC2)cc1 (stereo not shown),20.5%
19,Cn1nc(C(C)(C)C)c([N+](=O)[O-])c1C(=O)Nc1ccccc1,4.06%
20,COc1ccc(N2CC(C(=O)N[C@H](C(=O)NC3CCCCC3)C(C)C)CC2=O)cc1 (stereo partly shown),14.5%
21,Cc1nc2[nH]c(=O)c3c(n2n1)NC1=C(C(=O)CC(C)(C)C1)C3c1ccc(F)cc1 (stereo not shown),12%
22,Cc1ccc(C(=O)c2coc3ccc(O)c(Cl)c23)cc1,-26.5%

row,SMILES,"hERG current change (%, negative = inhibition) at 10uM"
1,CCCc1cc(C(=O)Nc2sc3c(c2C#N)CCC3)no1,6.49%
2,CCCOc1cccc(C(=O)N(Cc2cccs2)C2CCS(=O)(=O)C2)c1 (stereo not shown),-22.4%
3,CCN(CC(=O)N1CCOCC1)S(=O)(=O)c1ccccc1,13.7%
4,Cc1cccc(N2CCN(C(c3cccs3)c3nnnn3C(C)(C)C)CC2)c1C (stereo not shown),-1.77%
5,COC(=O)C1=C(C)NC(=O)CC1c1cc2c(cc1Br)OCO2 (stereo not shown),1.24%
6,COc1ccc(C)cc1S(=O)(=O)N(C)CC(=O)N1CCCCCC1,14.7%
7,NS(=O)(=O)c1ccc(N2C(=O)C3CC=CCC3C2=O)cc1 (stereo not shown),31.6%
8,CCOc1ccc(-c2cn(S(=O)(=O)c3cccc4nsnc34)nc2N)cc1,-3.75%
9,O=C(Cn1nnc(-c2cccs2)n1)NCc1cccs1,13.7%
10,COc1cc(C#N)c(NC(=O)CN2CCC(C(N)=O)CC2)cc1OC,10.3%
11,CC1(c2ccc3c(c2)OCCCO3)NC(=O)N(CC(=O)NCCc2ccccc2)C1=O (stereo not shown),-7.38%
12,CCCC(=O)Nc1c(-c2cccc(OC)c2)c(=O)c2ccccc2n1C,10.5%
13,O=C(N/N=C/c1cccnc1)NC12CC3CC(CC(C3)C1)C2,-38.1%
14,COc1ccccc1NC(=S)NC(NC(=O)c1ccco1)C(Cl)(Cl)Cl (stereo not shown),-9.8%
15,CCOc1ccccc1N(CC(=O)NC1CCCCC1)C(=O)c1nsc(Cl)c1Cl,-7.03%
16,CCOC(=O)c1cccnc1SCC(=O)N(C)c1ccccc1,-6.39%
17,Cc1cc(C(=O)N/N=C2\CCCC(=O)C2)c(C)n1-c1ccccc1,9.44%
18,COc1cccc(COC(=O)c2cc(=O)[nH]c3ccc(S(=O)(=O)N4CCOCC4)cc23)c1OC,-19.2%
19,COc1ccc(CNC(=O)CN(C(=O)CCC(=O)Nc2nccs2)c2ccccc2C)cc1,-29.1%
20,O=C(CSc1nnc(-c2ccncc2)n1CC1CCCO1)NCc1ccccc1 (stereo not shown),6.97%
21,Nc1c(Cl)ncnc1N/N=C/c1ccccn1,-36.3%
22,COC(=O)c1ccc(NC(=S)N2CCN(Cc3cccc(C)c3)CC2)cc1,-14.6%

row,SMILES,"hERG current change (%, negative = inhibition) at 10uM"
1,CNC(=S)N/N=C1\C(=O)c2cccc3cccc1c23,11.9%
2,O=C(CCCn1c(=S)[nH]c2ccccc2c1=O)N1CCOCC1,-7.78%
3,O=C(O)CCNC(=O)c1ccc(Br)o1,7.01%
4,CC1=NN(c2ccc(Cl)cc2)C(=O)C1,3.77%
5,CCOc1ccc(N2CC(=O)Nc3ccccc3NCC2=O)cc1,-2.28%
6,O=C(NCc1ccncc1)C1CCCCC1,1.14%
7,O=C(Cn1cccc1C(=O)c1ccccc1)NCc1cccc(Cl)c1,13.4%
8,Cc1ccc(C(=O)OCc2nnc(-c3ccccc3)o2)s1,-7.37%
9,CCOc1ccc(/C=N/Nc2nc(C)cs2)c(O)c1,31.7%
10,CCc1nnc(NC(=O)Cc2c[nH]c3ccccc23)s1,2.92%
11,O=C(CN1C(=O)NC(c2ccccc2)(c2ccccc2)C1=O)NC1CCCCC1,-14.8%
12,CCc1nnc(NS(=O)(=O)c2ccc(N3C(=O)C4CC=C(Cl)CC4C3=O)cc2)s1 (stereo not shown),4.84%
13,Cn1c(COc2ccccc2)nnc1SCC(=O)Nc1ccc(N2CCOCC2)c(Cl)c1,-4.61%
14,CCC(C)(C(=O)NC1CCCCC1)N(Cc1ccco1)C(=O)CNC(=O)c1ccccc1 (stereo not shown),-4.05%
15,CCNC(=S)N/N=C/c1cc(C)n(-c2ccc(Cl)cc2)c1C,20.5%
16,Cc1ccc(-c2nc(N)n(S(C)(=O)=O)n2)cc1,7.05%
17,Cc1ccc(OCC(=O)NNC(=O)C2CCN(c3ncnc4sc(C)c(C)c34)CC2)cc1,-50.7%
18,CC(=O)C1=C(C)N(Cc2ccccc2)C(=O)N[C@H]1c1cccc(F)c1,-30.2%
19,COc1ccc(N2CC(C(=O)Nc3ccccc3N3CCCC3)CC2=O)c(OC)c1 (stereo not shown),-4.31%
20,CCOC(=O)c1sc(NC(=O)CCN2C(=O)c3cccc([N+](=O)[O-])c3C2=O)c(C(=O)OCC)c1C,0.676%
21,Cc1cccc(-c2cc3nc(C)cc(N4CC(C)CC(C)C4)n3n2)c1 (stereo not shown),12.3%
22,CCCCCCSC1=C(C#N)C(c2ccc(O)cc2)CC(=O)N1 (stereo not shown),-4.91%

row,SMILES,"hERG current change (%, negative = inhibition) at 10uM"
1,COC(=O)COc1cccc2c(=O)n(CC(=O)NCCc3ccccc3)ccc12,-13.8%
2,O=C1CC(c2ccco2)CC(O)=C1C=Nc1cc(Cl)ccc1O (stereo not shown),11.6%
3,O=C(NCC1CCCO1)C1CC(=O)N(C2CCCCCC2)C1 (stereo not shown),19.3%
4,O=C(c1cccc(S(=O)(=O)N2CCCC2)c1)c1cccc(S(=O)(=O)N2CCCC2)c1,-1.06%
5,COc1ccc(C(=O)/C=C/Nc2cc(C)ccn2)cc1,-19.7%
6,O=C(NCc1ccc(F)cc1)C(c1ccccc1)N(C(=O)c1csnn1)c1ccccc1 (stereo not shown),6.97%
7,O=C(Cn1cnc2ccccc2c1=O)Nc1ccc2c(c1)OCO2,1.23%
8,CC(Oc1ccccc1Br)C(=O)N1CCc2ccccc21 (stereo not shown),-0.0538%
9,O=c1[nH]c2ccc(Cl)cc2c(-c2ccccc2)c1SC(=S)N1CCOCC1,-7.24%
10,CCOCCNC(=O)c1ccccc1C(=O)NCCOCC,-11.1%
11,COc1cc(CNCCN2CCOCC2)ccc1OCc1cccc(Cl)c1.Cl,-63.2%
12,Cc1c(Cl)cnc(NC(=O)COC(=O)CCc2nc3ccccc3s2)c1Cl,-4.89%
13,O=C(Oc1ccccc1C(=S)N1CCOCC1)c1ccccc1,7.59%
14,CNc1c(-n2cc(C(=O)OC)c(C(=O)OC)c2C(=O)OC)c(=O)n(C)c(=O)n1C,14.8%
15,C[n+]1ccccc1COc1ccc(C(C)(C)C)cc1.Cc1ccc(S(=O)(=O)[O-])cc1,2.84%
16,N#CCCn1cc(CNCc2ccccc2)c(-c2cccc([N+](=O)[O-])c2)n1,-33.3%
17,Cc1ccc2cc(C)c3nnc(SCC(=O)c4cccs4)n3c2c1C,-23.1%
18,CCc1ccc2[nH]c(=O)c(CN(Cc3ccco3)S(=O)(=O)c3ccc4c(c3)OCCO4)cc2c1,3.47%
19,O=C(NCC1CCCO1)c1ccccc1 (stereo not shown),-1.68%
20,CC(=O)Nc1ccc(Br)c2ccccc12,-6.53%
21,CCC1CCCCN1C(=O)CSc1nnc(-c2ccc3c(c2)OCCO3)o1 (stereo not shown),-18.3%
22,CN(CCOc1ccccc1)CC(=O)Nc1cc([N+](=O)[O-])ccc1Cl,6.74%
